Results on 91 compounds are retold here after PubChem BioAssay AID463173 (ICCB-Longwood Screening Facility, Harvard Medical School, 2010).

Screen size: about 52,000 compounds; about 1,700 (3.3%) were called active. No stated cut-off is given here; in the data, active means survival mostly below about 52% (no sharp cut-off); inactive means mostly above about 56%. Some of the results follow.

The test deals with Wild type. Nature of the test: growth inhibition of S. aureus wild type versus tarO mutant, primary screen, teichoic acid synthesis inhibitors, RN4220, OD600 (AID 463173). Conditions: S. aureus RN4220 wild type/DeltatarO growth, OD600, 18 h, stronger effect = lower value, screened at 18.75 µg/mL (by protocol).
Take `COc1ccccc1CNc1cc(C)nc2nc(-c3ccc(C)cc3)nn12`: the survival was inactive: 92%.

Take `O=C(c1ccccc1)N1CCN(C2CCCCC2)CC1`: the survival is inactive: 108%.

On to `COCCNC(=O)Cn1c(=O)n(CCCCCC(=O)NCc2ccccc2Cl)c(=O)c2sccc21`, for which the survival was inactive: 87%.

Regarding `c1ccc(-c2noc(-c3cccnc3NCc3ccco3)n2)cc1`, the survival is inactive: 81%.

Consider `Cc1cccc(Cn2c(SCc3ccc(C(=O)NCc4ccccc4F)cc3)nc3ccncc32)c1`, for which the survival was inactive: 80%.

As for `Cc1ccc(NC(=O)Cn2c(=O)oc3cc(S(=O)(=O)N4CCCCC4)ccc32)c(Cl)c1`, the survival was inactive: 106%.

For the compound `CCN(CC)CCCNC(=O)CCCn1ncn2c(cc3occc32)c1=O`, the survival was inactive: 85%.

As for `CC1CCCCN1C(=O)Cn1ncc2c3ccccc3n(Cc3ccccc3F)c2c1=O` (stereo unspecified), the survival was inactive: 26%.

For `CC(C)(C)C1CCc2c(sc3nc(-c4cc5ccccc5oc4=O)[nH]c(=O)c23)C1` (stereo unspecified), the survival is inactive: 81%.

As to `Cc1c(-c2cccc(NC(=O)Nc3ccc(Cl)cc3)c2)nc2ncccn12`, the survival was active: -4%.

On to `COc1ccccc1-c1noc(-c2ccc(NC3CCCCC3)c([N+](=O)[O-])c2)n1`, for which the survival is inactive: 86%.

For `COc1ccc(CN(C(=O)c2cc3ccccc3oc2=O)C2CCS(=O)(=O)C2)cc1OC` (stereo unspecified), the survival was inactive: 66%.

As for `CCCCN(CCCNC(=O)CN1N=C(c2ccc(C)cc2)CCC1=O)c1ccccc1`, the survival is inactive: 101%.

With `COc1cccc(NC(=O)CCc2nc3c(C)nn(-c4ccc(C)cc4)c3n(C)c2=O)c1`, the survival was inactive: 72%.

In the case of `Cc1ccc2c(c1)-c1c(cnn1CC(=O)N1CCN(c3ccccc3F)CC1)CO2`, the survival was inactive: 77%.

Take `COCCCNC(=O)c1cnc2sc(N3CCCCCC3)nn2c1=O`: the survival was inactive: 69%.

With `CCSc1nc2c(c(=O)[nH]c(=O)n2C)n1CC`, the survival is inactive: 98%.

Turning to `O=c1c(=O)n(Cc2ccc(Cl)cc2)ccn1Cc1ccc(F)cc1`, the survival was inactive: 90%.

As to `Cc1ccc(-c2nc(CNC(=O)Nc3ccccc3)c(C)o2)cc1`, the survival was inactive: 68%.

On to `COc1ccc(-c2cn3cccnc3n2)cc1NC(=O)Cc1ccccc1`, for which the survival is inactive: 99%.

In the case of `COc1cccc(OCC(=O)NCCS(=O)(=O)N2CCN(c3ccccc3F)CC2)c1`, the survival was inactive: 85%.

As for `Cc1oc2ncn(CC(C)C)c(=O)c2c1C(=O)NCCc1ccccc1`, the survival is inactive: 72%.

Consider `Cc1cc(C)n2c(Nc3ccc(C(C)C)cc3)c(-c3ccsc3)nc2n1`, for which the survival is inactive: 60%.

For `CCc1nc2cccnc2n1-c1ccc(CC(=O)Nc2c(C)cccc2C)cc1`, the survival was inactive: 80%.

As for `CCN(CC)C(=O)CSc1nc2ccsc2c(=O)n1Cc1ccccc1Cl`, the survival is inactive: 72%.

For the compound `Cn1c(=O)n(C)c2cc(/C=C(/C#N)C(=O)NCc3ccco3)ccc21`, the survival is inactive: 109%.

`CCc1ccc(NC(=O)CSc2nc3c([nH]c4ccccc43)c(=O)n2-c2cccc(OC)c2)cc1`: the survival was inactive: 99%.

With `CCOC(=O)C1=C(C)OC(N)=C(C(=O)OCC)C1c1ccncc1` (stereo unspecified), the survival was inactive: 103%.

As to `O=C(Oc1ccccc1-c1nc(-c2ccccc2)no1)c1ccccc1`, the survival was inactive: 100%.

`COc1cc(C)ccc1OCCSc1nc2ccc(NC(C)=O)cc2s1`: the survival is inactive: 73%.

Consider `CCCCCn1c(=O)c2c(nc3n2CCN3c2ccc(Br)cc2)n(C)c1=O`, for which the survival was inactive: 85%.

Consider `CN1C(=O)/C(=C2/Sc3ccccc3N2C)SC1=NC1CCCCC1`, for which the survival is inactive: 113%.

Turning to `O=C(CN1CCC(n2nnc3cc(F)ccc32)CC1)NCCc1ccccc1`, the survival is inactive: 97%.

Regarding `CCOc1ccc(NC(=O)CSc2nc(=O)[nH]c3c2CCC3)cc1`, the survival is inactive: 78%.

`CCC(Sc1nnc2c3ccccc3n(C)c2n1)C(=O)Nc1nnc(C(C)C)s1` (stereo unspecified): the survival is inactive: 61%.

`CCC1CN(C(=O)N2CCC(C(=O)N3CCN(c4cc(C)ccc4C)CC3)CC2)c2ccccc2O1` (stereo unspecified): the survival was inactive: 53%.

Regarding `COCCN(C(=O)C1CC1)c1nnc(-c2cccc(C)c2)s1`, the survival was inactive: 107%.

Turning to `COc1ccc(-c2cc3ccc(O)c(CN4CCCC4)c3oc2=O)cc1OC`, the survival was inactive: 135%.

`Cc1ccc(C)c(CNC(=O)c2sc3ncnc(N(C)C4CCCCC4)c3c2C)c1`: the survival is inactive: 82%.

As to `Cc1cc(F)ccc1NC(=O)CCSc1nc(-c2ccco2)cc(C(F)(F)F)n1`, the survival was inactive: 74%.

`COC(=O)COc1ccc(Oc2nc(NC(C)(C)C)nc(N(C)C)n2)nn1`: the survival is inactive: 85%.

Turning to `CCCCCCSc1ncc(C#N)c(N)n1`, the survival is inactive: 119%.

Consider `CCOC(=O)c1c(C)c(-c2ccccc2)n(CC(=O)Nc2cccc(C)c2C)c1C`, for which the survival is inactive: 98%.

Take `COc1ccc(C(=O)NCC(c2ccc3c(c2)OCO3)N2CCOCC2)cc1OC` (stereo unspecified): the survival is inactive: 65%.

With `COc1ccc(CNC(=O)c2cn(-c3cccc(OC)c3)c(=O)c3ccccc23)cc1`, the survival is inactive: 82%.

As to `Cc1ccc(C(=O)NC2(C(F)(F)F)N=C(c3ccccc3)N(C3CCCCC3)C2=O)cc1` (stereo unspecified), the survival was inactive: 70%.

On to `Cc1ccc2nc(N(Cc3cccnc3)C(=O)CCOc3ccccc3)sc2c1`, for which the survival was inactive: 72%.

Consider `Cc1cccc(C(=O)N2CCc3cc(CNS(=O)(=O)c4cccs4)ccc32)c1`, for which the survival was inactive: 71%.

As to `CCc1cc2c(cc3c(=O)n(CC(=O)NCCOC)nc(CC)n32)s1`, the survival was inactive: 70%.

For `CC(=O)Nc1ccc(Nc2ncnc3sc4c(c23)CCCC4)cc1`, the survival is inactive: 71%.

As to `CCn1c(CC2C(=O)N(C)c3ccc(Br)cc32)nc2ccccc2c1=O` (stereo unspecified), the survival was inactive: 80%.

On to `Cn1c(=O)cc(SCC(=O)N2CCN(c3ccccc3)CC2)c2ccccc21`, for which the survival is inactive: 76%.

For `COc1cc(OC)c(NC(=O)N2CC=C(c3c[nH]c4ccccc34)CC2)cc1Cl`, the survival is inactive: 70%.

Consider `COc1cccc(C(=O)Nc2ccc(C(=O)OCc3cc(=O)n4nc(C5CC5)sc4n3)cc2)c1`, for which the survival was inactive: 63%.

For the compound `COc1ccccc1NC(=O)c1ccccc1C(=O)O`, the survival was inactive: 109%.

As to `COc1ccccc1OCc1nc(-c2cccc(C)c2)no1`, the survival is active: 0%.

As to `CCCN1C(=O)C2(c3ccccc31)c1c(oc3ccccc3c1=O)C(=O)N2CCCOC(C)C` (stereo unspecified), the survival was inactive: 79%.

With `Cc1cccc(-c2nc(SCC(=O)N(C)c3ccccc3)c3c(=O)n(C)c(=O)n(C)c3n2)c1`, the survival was inactive: 71%.

Consider `O=C(c1ccco1)N1CCN(C(=O)c2cnn(-c3cccc(F)c3)c2C2CCNCC2)CC1`, for which the survival is inactive: 70%.

As for `O=C(O)c1ccc(C2Nc3ccccc3-c3nnc(SCc4ccc(Cl)cc4)nc3O2)cc1` (stereo unspecified), the survival is inactive: 74%.

On to `O=C(c1cccc(Cl)c1)N1CCC(c2nc3ccccc3o2)CC1`, for which the survival was inactive: 100%.

As to `O=C(Cn1c(=O)n2nc(-c3cccc(F)c3)nc2c2ccccc21)N1CCN(c2ccccc2F)CC1`, the survival is inactive: 136%.

Turning to `COc1ccc(OC)c(NC(=O)c2c(C)oc3ncnc(N4CCOCC4)c23)c1`, the survival is inactive: 159%.

Consider `CC1CCN(C(=O)C(C)Sc2nc(-c3ccccc3)cc(C(F)(F)F)n2)CC1` (stereo unspecified), for which the survival was active: -7%.

On to `COc1ccc(S(=O)(=O)N(C)CC(=O)NCc2ccc3c(c2)OCO3)cc1`, for which the survival was inactive: 93%.

Regarding `CCCCn1c(=O)nc2n(-c3ccc(F)cc3)c3ccccc3cc-2c1=O`, the survival is inactive: 71%.

Consider `NC(=O)C1CCN(C(=S)NCCc2ccccc2)CC1`, for which the survival is inactive: 102%.

Regarding `CC(Sc1nc2c([nH]c3ccccc32)c(=O)n1-c1ccccc1)c1ccccc1` (stereo unspecified), the survival is inactive: 98%.

Regarding `Cc1ccc(-c2cc(C(F)(F)F)n3ncc(-c4ccc(Cl)cc4)c3n2)cc1`, the survival was inactive: 92%.

Take `CCOC(=O)C1CCN(C(=O)c2ccc3c(c2)N=C(CC)c2cc(C)ccc2S3)CC1`: the survival is inactive: 29%.

As for `O=C(CSc1nc2c(cnn2-c2ccc(F)cc2)c(=O)[nH]1)Nc1ccccc1C(F)(F)F`, the survival is inactive: 114%.

As to `O=C(c1ccco1)N1CCCC(c2nc(-c3ccc(S(=O)(=O)NCc4ccccc4)cc3)no2)C1` (stereo unspecified), the survival is inactive: 111%.

For the compound `CC1CCc2c(sc(NC(=S)NC(=O)c3ccn(C)n3)c2C(N)=O)C1` (stereo unspecified), the survival was inactive: 112%.

As for `CCC(=O)N1CCc2cc(S(=O)(=O)CCC(=O)NCc3ccc(OC)cc3)ccc21`, the survival was inactive: 118%.

Turning to `COc1cccc(CNC(=O)c2cc3ccc4cccnc4c3[nH]2)c1`, the survival was inactive: 77%.

In the case of `Cc1occc1-c1nnc(SCC(=O)Nc2ccc3c(c2)OCO3)n1CC(C)C`, the survival was inactive: 99%.

As to `COc1ccccc1NC(=O)C1=C(C)Nc2nc(SCc3cccc(F)c3)nn2C1c1ccc(C(=O)O)cc1` (stereo unspecified), the survival is inactive: 142%.

As for `COc1ccccc1N1CCN(C(=O)c2cc3c(=O)oc4ccccc4c3s2)CC1`, the survival is inactive: 139%.

As for `CCOc1ccc(N2CC(c3nc4ccccc4n3CCOc3ccccc3)CC2=O)cc1` (stereo unspecified), the survival was inactive: 26%.

Take `CC(C)(C)c1cc(CN)c(C(=O)O)o1`: the survival is inactive: 108%.

With `O=C(CN1CCN(Cc2ccccc2)CC1)N1CCOCC1`, the survival is inactive: 112%.

With `COc1ccc(C2C=C(c3ccccc3)Nc3nc(NC(=O)/C=C/c4ccc(Cl)cc4)nn32)cc1` (stereo unspecified), the survival was inactive: 65%.

Turning to `Cc1nn(-c2ccccc2)c2sc(C(=O)Nc3cccc(Br)c3)cc12`, the survival was inactive: 36%.

`Cc1nc2ncnn2c(C)c1CCC(=O)NCc1cccc(Cl)c1`: the survival is inactive: 68%.

`Cc1ccc(NC(=O)c2cc(S(=O)(=O)N3CCCCC3)c[nH]2)cc1F`: the survival is inactive: 97%.

Take `CCOC(=O)N1CCN(C(=O)Cn2ncc3c4ccccc4n(Cc4ccc(F)cc4)c3c2=O)CC1`: the survival is inactive: 89%.

For the compound `Cc1ccc(Nc2nc(N)nc(CSc3nccn3C)n2)cc1`, the survival is inactive: 94%.

As to `Cc1noc(C)c1S(=O)(=O)NCCc1csc2nc(-c3ccc(Cl)cc3)nn12`, the survival was inactive: 72%.

`O=C(COc1ccc(F)cc1)Nc1ccc(Cl)c(-c2nc3ccccc3[nH]2)c1`: the survival was inactive: 40%.

Regarding `COc1ccccc1-c1nnc(C2CCN(S(=O)(=O)c3ccc(F)c(C)c3)CC2)o1`, the survival was inactive: 77%.

On to `O=C(Oc1cccc(-n2cnnn2)c1)C1CCCCC1`, for which the survival is inactive: 100%.
